According to the supplement of paper PMC3334620:
In all, about 33,000 sequences were measured (“E-score (-0.5 to 0.5)”: median about -0.016, highest 2% from about 0.32 on). The list shows a part of the results.

The sequences below were run against T1, Stp1 (UniProt B3LFK1) (assay: PBM E-score (8-mer binding enrichment) (E-score (-0.5 to 0.5)); higher = stronger / more preferred TF binding; most listed sequences are background and not binding sites). Conditions: protein concentration: 200 nM; construct: GST-full length.
T1 sequence: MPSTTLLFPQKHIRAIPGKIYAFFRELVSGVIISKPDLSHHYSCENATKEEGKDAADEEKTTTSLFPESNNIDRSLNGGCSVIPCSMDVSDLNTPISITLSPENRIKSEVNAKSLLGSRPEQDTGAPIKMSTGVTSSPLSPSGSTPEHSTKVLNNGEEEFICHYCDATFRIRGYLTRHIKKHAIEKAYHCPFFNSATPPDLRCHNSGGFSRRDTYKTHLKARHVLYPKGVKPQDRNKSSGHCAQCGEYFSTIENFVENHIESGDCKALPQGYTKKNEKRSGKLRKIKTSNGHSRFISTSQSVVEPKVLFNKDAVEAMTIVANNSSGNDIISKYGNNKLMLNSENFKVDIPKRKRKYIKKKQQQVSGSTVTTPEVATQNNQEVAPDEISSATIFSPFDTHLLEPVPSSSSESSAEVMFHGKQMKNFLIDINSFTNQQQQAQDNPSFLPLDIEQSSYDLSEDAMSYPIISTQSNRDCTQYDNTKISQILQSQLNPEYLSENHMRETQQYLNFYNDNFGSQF
How it was run: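 Bound GST-tagged yeast transcription factors, applied at about 100-200 nM to double-stranded universal all-10-mer Agilent arrays, were detected with fluorescent anti-GST. Scans were normalised with masliner. A modified Wilcoxon-Mann-Whitney statistic, the E-score, was assigned to each ungapped eight-base word pooled with its reverse complement by the Universal PBM Analysis Suite.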
CACGAAGA was tested, and the “PBM E-score” value was 0.158.
CAACAGCC was tested, and the “PBM E-score” value was 0.188.
For CCGGTACA, the “PBM E-score” value was -0.2.
With ACTGATGG the “PBM E-score” value was -0.11.
In the case of AGTGCCAG, the “PBM E-score” value is reported as -0.105.
For ACGTAGTA, the “PBM E-score” value was 0.103.
For ACGGGCGA, the “PBM E-score” value was -0.0527.
For ACAGGTGC, the “PBM E-score” value was -0.0189.
With CGGGGACC the “PBM E-score” value was -0.15.
AAGCATTC was tested, and the “PBM E-score” value was -0.00856.
For ATTCCGAG, the “PBM E-score” value was -0.0185.
In the case of AGACTACA, the “PBM E-score” value is reported as -0.154.
For AATCGTCT, the “PBM E-score” value was 0.129.
For CAGGTTCG, the “PBM E-score” value was -0.105.
With ACGCTTAG the “PBM E-score” value was -0.149.
For AGGCGTCA, the “PBM E-score” value was 0.172.
In the case of AGTGTATG, the “PBM E-score” value is reported as 0.161.
For CTAAGGAC, the “PBM E-score” value was -0.103.
TTAAGTAA was tested, and the “PBM E-score” value was -0.0214.
For GACAAAAC, the “PBM E-score” value was -0.00337.
ATTTATGC was tested, and the “PBM E-score” value was 0.0882.
With ACTTGTCC the “PBM E-score” value was -0.0113.
In the case of ATTAGCGA, the “PBM E-score” value is reported as 0.0934.
With ATTACATC the “PBM E-score” value was 0.123.
CTAAGGTA was tested, and the “PBM E-score” value was 0.164.
In the case of CTTACGCA, the “PBM E-score” value is reported as 0.00976.
In the case of AATACGTC, the “PBM E-score” value is reported as 0.0822.
For CACTGGCA, the “PBM E-score” value was -0.0309.
CGGAGGCC was tested, and the “PBM E-score” value was -0.0252.
CTATTGAA was tested, and the “PBM E-score” value was 0.199.
For CCAGCTCG, the “PBM E-score” value was -0.156.
In the case of TCATACAA, the “PBM E-score” value is reported as 0.122.
For ATATTCTG, the “PBM E-score” value was -0.053.
In the case of ATTGTCAG, the “PBM E-score” value is reported as -0.0247.
For AGCGACCC, the “PBM E-score” value was -0.0739.
AGGGGATC was tested, and the “PBM E-score” value was -0.23.
In the case of GTCTGCAA, the “PBM E-score” value is reported as -0.0438.
In the case of ACAAGCCT, the “PBM E-score” value is reported as 0.0381.
With AGGTATAT the “PBM E-score” value was -0.0343.
For TAGTGACA, the “PBM E-score” value was 0.0544.
With GGTAGCTA the “PBM E-score” value was -0.301.
AGATAAGG was tested, and the “PBM E-score” value was 0.0189.
AGCCGCAG was tested, and the “PBM E-score” value was 0.258.
With CGTAATCC the “PBM E-score” value was 0.00113.
In the case of GAGAGACA, the “PBM E-score” value is reported as -0.32.
With ACTGTACC the “PBM E-score” value was -0.239.
For GCAGTTCC, the “PBM E-score” value was -0.0465.
For AGTACATA, the “PBM E-score” value was 0.102.
With ATTCTCAA the “PBM E-score” value was 0.152.
CAGCTTGA was tested, and the “PBM E-score” value was -0.0612.
With AGTCTAAG the “PBM E-score” value was -0.00282.
With ATATATGG the “PBM E-score” value was 0.174.
ACCATATC was tested, and the “PBM E-score” value was -0.01.
For AGGTTAAA, the “PBM E-score” value was -0.122.
For ACACAGAC, the “PBM E-score” value was 0.0537.
In the case of CGAGGGCG, the “PBM E-score” value is reported as -0.052.
In the case of AATTAGAG, the “PBM E-score” value is reported as -0.0445.
In the case of AAAAAGCT, the “PBM E-score” value is reported as -0.079.
For CTCACTAC, the “PBM E-score” value was -0.0257.
With CCCTGTAA the “PBM E-score” value was -0.0443.
In the case of CTAGTTGA, the “PBM E-score” value is reported as 0.0366.
For CCTCGTCA, the “PBM E-score” value was 0.239.
ACTCAGTG was tested, and the “PBM E-score” value was -0.139.
With AGGGTAAT the “PBM E-score” value was 0.0034.
For ACGATTCA, the “PBM E-score” value was 0.0286.
In the case of AAATGCTA, the “PBM E-score” value is reported as 0.098.
With AGAATATA the “PBM E-score” value was -0.0127.
In the case of AACGGGCA, the “PBM E-score” value is reported as 0.171.
In the case of AATGCATC, the “PBM E-score” value is reported as -0.114.
In the case of GGCCGACC, the “PBM E-score” value is reported as -0.225.
TATGCAAA was tested, and the “PBM E-score” value was -0.00692.
With TCCTCAAA the “PBM E-score” value was -0.0557.
With CGCTCCCC the “PBM E-score” value was -0.167.
In the case of CCGTTTCA, the “PBM E-score” value is reported as 0.281.
For ACAGGTTG, the “PBM E-score” value was -0.251.
GCAACCGC was tested, and the “PBM E-score” value was 0.1.
With ATGGAAAG the “PBM E-score” value was 0.103.
With ACGCAAGA the “PBM E-score” value was -0.0151.
In the case of AAGTCATA, the “PBM E-score” value is reported as 0.074.
In the case of GATACTAA, the “PBM E-score” value is reported as 0.165.
With GATTGGAA the “PBM E-score” value was 0.129.
With AACCGGCG the “PBM E-score” value was 0.211.
For GTCTCACA, the “PBM E-score” value was 0.0616.
In the case of AGAGGGGA, the “PBM E-score” value is reported as -0.282.
TACATAGA was tested, and the “PBM E-score” value was 0.0247.
AGCCTCCG was tested, and the “PBM E-score” value was -0.136.
